About 930 (0.24%) of roughly 390,000 compounds were called active. The inconclusive results got no clear call from the source; some entries with a clear call stand among them for comparison. The call rests on the fitted dose curve; in most records, active means well fitted activation curve with a large enough effect; inconclusive means small, poorly fitted or top-dose-only effect; inactive means no such curve, though single readings can be large or run the other way. Potencies of inconclusive entries are doubtful fits and often do not repeat.
Assay: qHTS for Suppressors of FUS Proteinopathy: Primary screen using FUS-linked yeast assay; further: nearly all actives have a fitted effect of over 55% in size;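 on growth rescue (activation): plate controls were DMSO vehicle for no effect and reference control for full effect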
Conditions: S. cerevisiae FUS-expressing, OD600, 24 h; Potency: growth rescue; growth rescue (activation): at 76.6 µM (top of the series)
Outline: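 Compound concentration series was pinned onto galactose-induced FUS-expressing yeast seeded at OD 0.005. Plates sat 24hr at 30C; absorbance at 600 nm gave growth. DMSO served as background control.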
With `Cc1noc(C)c1S(=O)(=O)N(C)C[C@H]1Oc2c(NC(=O)Nc3ccc(C(F)(F)F)cc3)cccc2C(=O)N([C@H](C)CO)C[C@@H]1C` the Potency was inconclusive: 20 µM [activator, single point]. In the case of `CCC(Oc1ccccc1F)C(=O)Nc1cc(-c2ccccc2)no1` (stereo not given), the “growth rescue (activation)” value is reported as inactive: 14.8%. For `COC(=O)c1ccc(NC(=O)c2c(NCc3cccc(F)c3)sc3c2CCCC3)cc1`, the “growth rescue (activation)” value was inactive: 36.5%. For `O=C(COC(=O)c1ccc2c(c1)C(=O)N(Cc1ccncc1)C2=O)Nc1cccc2ccccc12`, the Potency was inconclusive: 39.8 µM [activator, partial curve, poor fit]. For `CCO[C@@H]1OC(C(=O)NCc2ccccc2)=C[C@H](C2CCCCC2)[C@H]1CCCO`, the Potency was inconclusive: 17.8 µM [activator, partial curve, poor fit]. In the case of `Cc1ccc(-n2c(O)c(C=Nc3ccccc3-c3n[nH]c(=S)[nH]c3=O)c3ccccc3c2=O)cc1C`, the Potency is reported as inconclusive: 7.94 µM [activator, partial curve, poor fit]. In the case of `CCOc1cc(N2CCOCC2)c(OCC)cc1NC(=O)c1nc2nc(C)cc(C)n2n1`, the “growth rescue (activation)” value is reported as inactive: -2.11%. With `OC(CNCC1CCCO1)Cn1c2ccc(Br)cc2c2cc(Br)ccc21` (stereo not given) the Potency was inconclusive: 50.1 µM [activator, single point]. With `CCCCOCCCNC(=O)C[C@@H]1C[C@@]2(C(=O)OCC)CCC=C2N(CCC2=CCCCC2)C1=O` the Potency was inconclusive: 17.8 µM [activator, partial curve]. In the case of `COc1ccccc1C(c1nnnn1Cc1ccccc1)N1CCC(C(N)=O)CC1` (stereo not given), the Potency is reported as inconclusive: 20 µM [activator, partial curve, poor fit]. With `O=C(CSc1nc2ccccc2o1)Nc1ccc(N2CCOCC2)cc1` the Potency was inconclusive: 50.1 µM [activator, partial curve, poor fit]. With `CCOc1ccccc1NC(=O)CSc1nc2ccccc2nc1N1CCOCC1` the Potency was inconclusive: 35.5 µM [activator, single point]. With `CC1(C(=O)Nc2cccc3cccnc23)CCN1Cc1ccc(-c2ccccc2)o1` (stereo not given) the Potency was inconclusive: 31.6 µM [activator, single point]. For `O=C(CSc1ccccc1)NC1CCCCN(Cc2cccc(Cl)c2)C1=O` (stereo not given), the “growth rescue (activation)” value was inactive: 37.9%. With `COc1ccc(-c2cn3c(C)c(C(=O)N4CCN(c5ccc(F)cc5)CC4)sc3n2)cc1` the “growth rescue (activation)” value was inactive: -16.7%. For `CC1(Cc2cccc(C#N)c2)C(=O)Nc2c(Cl)cccc21` (stereo not given), the “growth rescue (activation)” value was inactive: -9.73%. In the case of `Cc1c(OC(C)C(=O)NCC(O)c2ccccc2)ccc2c3c(c(=O)oc12)CCCC3` (stereo not given), the “growth rescue (activation)” value is reported as inactive: 26.1%. In the case of `Cc1[nH]c2ccc(C(=O)N3CCN(c4ccccc4F)CC3)cc2c1C`, the Potency is reported as inconclusive: 50.1 µM [activator, single point]. For `CCN(CC)S(=O)(=O)c1ccc(NC(=O)Cn2ncc3c([nH]c4ccccc43)c2=O)cc1`, the Potency was inconclusive: 31.6 µM [activator, partial curve, poor fit]. With `O=C(Cn1c(=O)n(Cc2ccco2)c(=O)c2c3c(sc21)CCCCC3)c1ccccc1` the Potency was inconclusive: 25.1 µM [activator, partial curve, poor fit]. For `COC(=O)c1ccccc1NC(=O)CN(C)S(=O)(=O)c1ccc(OC)c(C)c1`, the Potency was inconclusive: 1.26 µM [activator, full curve, poor fit]. With `CCOc1ccc(/C=C/c2nc(C#N)c(N3CCN(CC)CC3)o2)cc1` the “growth rescue (activation)” value was inactive: -15.3%. In the case of `O=C1CSc2ccc(C(=O)Nc3cccc(S(=O)(=O)Nc4ccc(Br)cc4)c3)cc2N1`, the Potency is reported as active: 7.08 µM. In the case of `COc1ccc(CCNC(=O)c2ccc3c(c2)CCN3S(=O)(=O)c2ccccc2)cc1`, the Potency is reported as inconclusive: 28.2 µM [activator, partial curve, poor fit]. In the case of `CCC(=O)Nc1ccc(N2CCN(Cc3ccccc3)CC2)cc1`, the Potency is reported as inconclusive: 11.2 µM [activator, full curve, poor fit]. With `CCOc1ccc(CCNC(=O)c2ccc(Oc3ccccc3)cc2)cc1OCC` the “growth rescue (activation)” value was inactive: 5.41%. For `COc1ccc(OC)c(NC(=O)c2c(NCc3cccs3)sc3c2CCCCC3)c1`, the Potency was inconclusive: 31.6 µM [activator, single point]. In the case of `COc1cc(OC)cc(C(=O)NC(=S)Nc2ccc(Cl)c(C(=O)O)c2)c1`, the “growth rescue (activation)” value is reported as inactive: 26.9%. With `O=c1[nH]c(C2CCN(S(=O)(=O)c3ccccc3)CC2)nc2c1nnn2Cc1c(F)cccc1Cl` the Potency was inconclusive: 31.6 µM [activator, single point]. With `CC(C)c1ccc(CC(=O)N2CCC2(C)C(=O)Nc2cnc3ccccc3c2)cc1` (stereo not given) the “growth rescue (activation)” value was inactive: 40%. In the case of `CCN1CCN(c2c(/C=C3\SC(=S)N(Cc4ccco4)C3=O)c(C)c(C#N)c(=O)n2C)CC1`, the Potency is reported as active: 22.4 µM. In the case of `CCOC(=O)N1CCN(C(=O)C[C@H]2C[C@@]3(C(=O)OC)C(=C[C@H](C4CCCC4)O[C@@H]3C)N(Cc3ccco3)C2=O)CC1`, the Potency is reported as inconclusive: 8.91 µM [activator, partial curve]. In the case of `Cc1ccc2c(c1)[C@H]1OCC[C@H]1[C@@H](c1ccncc1)N2`, the “growth rescue (activation)” value is reported as inactive: -0.695%. In the case of `O=C(Cc1cccc(NC(=O)C2CCN(C(=O)CCc3ccccc3)CC2)c1)Nc1cccc(C(=O)N2CCCCC2)c1`, the Potency is reported as inconclusive: 25.1 µM [activator, partial curve, poor fit]. In the case of `O=C1C(N2CCOCC2)=C(n2nnc3ccccc32)C(=O)c2ccccc21`, the “growth rescue (activation)” value is reported as inactive: -1.59%. In the case of `COc1cc(OC)cc(-c2nnc(SCc3cccnc3)o2)c1`, the “growth rescue (activation)” value is reported as inactive: -1.04%. For `COc1cccc(N2CCN(C(=O)c3cnc4c(-c5ccccc5)c(C)nn4c3C)CC2)c1`, the Potency was inconclusive: 50.1 µM [activator, single point]. With `COC[C@H]1CCCN1c1ccc2c(c1)O[C@@H](COCc1ccccc1)CN([C@H](C)c1ccccc1)S2(=O)=O` the Potency was inconclusive: 10 µM [activator, partial curve]. In the case of `COc1cccc(CN2C(=O)c3ccccc3Sc3ccc(C(=O)NCc4ccccc4)cc32)c1`, the Potency is reported as inconclusive: 22.4 µM [activator, single point]. With `O=C(NCc1ccccc1)c1ccc2c(c1)N(Cc1ccccc1F)C(=O)c1ccccc1S2=O` (stereo not given) the Potency was inconclusive: 44.7 µM [activator, single point].

Source: PubChem BioAssay AID1347120 (National Center for Advancing Translational Sciences (NCATS), 2019)
Potency means the concentration at half of the fitted maximal effect; tags describe the fitted curve by direction and shape.
